Experiment [1] addresses HA-tagged human Ago2 (HA-Ago2), full length, wild type (human) (UniProt Q9UKV8). The experiment in a line: co-IP; proteins co-expressed in HEK293 cells; IP with anti-HA (anti-His for the eGFP fusions), blot with anti-Flag or anti-His; PBS with 0.5% Nonidet P-40, 4 °C.
In experiment [2] the target is Argonaute-2 (Ago2), endogenous (human (endogenous in human cell lines and tumors)) (UniProt Q9UKV8). The experiment in a line: co-IP; A549 cell-derived extracellular vesicles; IP with anti-Ago2, blot for CAV1.
Experiment [3] has as its target HA-Ago2K212R, in Ago2-knockout A549 and HCC1806 cells (human) (UniProt Q9UKV8). The experiment in a line: co-IP; Ago2-knockout A549 and HCC1806 cells expressing HA-Ago2Wt, HA-Ago2K212A or HA-Ago2K212R; IP with anti-HA, blot for endogenous CAV1; ratio pCAV1/pHA; vehicle or TM (10 µM).
Experiment [4] addresses Argonaute-2 (Ago2), endogenous (human (endogenous in human cell lines and tumors)) (UniProt Q9UKV8). The experiment can be described thus: condition: only in normal epithelial cells (BEAS-2B, HPNE, HMLE); co-IP; endogenous proteins in lysates of normal epithelial cells (BEAS-2B, HPNE, HMLE); IP with anti-Ago2, blot for CAV1.
Experiment [5] has the same target. The experiment can be described thus: co-IP; human primary breast tumors and paired lymphatic metastases; IP with anti-Ago2, blot for CAV1.
The target in experiment [6] is HA-tagged CBM-deleted (amino acids 175–226) Ago2 (HA-Ago2∆), in Ago2-knockout A549 cells (human) (UniProt Q9UKV8). The experiment can be described thus: co-IP; A549 Ago2-KO/HA-AID-Ago2Wt/HA-Ago2∆ cells treated with IAA (only HA-Ago2∆ left); IP with anti-HA, blot for CAV1.
Experiment [7] addresses Argonaute-2 (Ago2), endogenous (human (endogenous in human cell lines and tumors)) (UniProt Q9UKV8). The experiment can be described thus: co-IP; endogenous proteins in A549 and HCC1806 cells treated with P2 or P2S peptide; IP with anti-Ago2, blot for CAV1.
Experiment [8] shares this target. The experiment in a line: co-IP; endogenous proteins in lysates of cancer cells (A549, H1299, BxPC-3, HCC1806, 104-S, C4-2, R-1); IP with anti-Ago2, blot for CAV1; PBS with 0.5% Nonidet P-40 and 5% BSA, 4 °C; also cells treated with vehicle, Nexturastat A, Sirtinol, EX-527 or TM.
A further experiment deals with HA-Ago2(1–580) (human) (UniProt Q9UKV8). The experiment in a line: co-IP; proteins co-expressed in HEK293 cells; IP with anti-HA (anti-His for the eGFP fusions), blot with anti-Flag or anti-His; PBS with 0.5% Nonidet P-40, 4 °C.
Experiment [9] has as its target HA-Ago2K212R, in HEK293 (human) (UniProt Q9UKV8). The experiment is described as above.
The target in experiment [10] is 175–226-deleted HA-Ago2(∆175–226), in HEK293 (human) (UniProt Q9UKV8). Described as above.
Another experiment concerns the target HA-Ago2(E197F) (human) (UniProt Q9UKV8). The experiment is described as above.
For a further experiment, the target named is HA-Ago2(73–859) (human) (UniProt Q9UKV8). Described as above.
The next experiment has as its target HA-Ago2 (W211A) (human) (UniProt Q9UKV8). The experiment is described as above.
For experiment [11], the target named is CBM-mutated HA-Ago2 (WF199/200/202/211A) (human) (UniProt Q9UKV8). The experiment is described as above.
In the next experiment the target is HA-Ago2(1–175) (human) (UniProt Q9UKV8). Described as above.
Experiment [12] deals with HA-Ago2 (WF199/200AA) (human) (UniProt Q9UKV8). Described as above.
The next experiment has as its target HA-Ago2(226–859) (human) (UniProt Q9UKV8). The experiment is described as above.
The next experiment addresses HA-Ago2 (S387E) (human) (UniProt Q9UKV8). The description is as above.
A further experiment concerns the target HA-Ago2(1–200) (human) (UniProt Q9UKV8). The experiment is described as above.
Another experiment has as its target HA-Ago2 (S387A) (human) (UniProt Q9UKV8). The description is as above.
For the next experiment, the target named is HA-Ago2(175–859) (human) (UniProt Q9UKV8). The description is as above.
The next experiment has as its target HA-Ago2(D218F) (human) (UniProt Q9UKV8). The experiment is described as above.
Another experiment addresses HA-Ago2(1–445) (human) (UniProt Q9UKV8). The description is as above.
The target of a further experiment is HA-Ago2(1–226) (human) (UniProt Q9UKV8). Described as above.
The target of experiment [13] is eGFP-Ago2(175–226)-His (human) (UniProt Q9UKV8). Described as above.
Another experiment deals with HA-Ago2 (F202A) (human) (UniProt Q9UKV8). The experiment is described as above.
In a further experiment the target is HA-Ago2(E186F) (human) (UniProt Q9UKV8). The description is as above.

The chains behind the UniProt entries cited, without tags or fusion partners. Where a name states a change or a piece, a line headed by the entry shows the natural chain unless it says otherwise. A line that says so, or that is headed by a name, gives the form on record, which may keep a tag or linker. Residues count along the entry.
UniProt Q9UKV8: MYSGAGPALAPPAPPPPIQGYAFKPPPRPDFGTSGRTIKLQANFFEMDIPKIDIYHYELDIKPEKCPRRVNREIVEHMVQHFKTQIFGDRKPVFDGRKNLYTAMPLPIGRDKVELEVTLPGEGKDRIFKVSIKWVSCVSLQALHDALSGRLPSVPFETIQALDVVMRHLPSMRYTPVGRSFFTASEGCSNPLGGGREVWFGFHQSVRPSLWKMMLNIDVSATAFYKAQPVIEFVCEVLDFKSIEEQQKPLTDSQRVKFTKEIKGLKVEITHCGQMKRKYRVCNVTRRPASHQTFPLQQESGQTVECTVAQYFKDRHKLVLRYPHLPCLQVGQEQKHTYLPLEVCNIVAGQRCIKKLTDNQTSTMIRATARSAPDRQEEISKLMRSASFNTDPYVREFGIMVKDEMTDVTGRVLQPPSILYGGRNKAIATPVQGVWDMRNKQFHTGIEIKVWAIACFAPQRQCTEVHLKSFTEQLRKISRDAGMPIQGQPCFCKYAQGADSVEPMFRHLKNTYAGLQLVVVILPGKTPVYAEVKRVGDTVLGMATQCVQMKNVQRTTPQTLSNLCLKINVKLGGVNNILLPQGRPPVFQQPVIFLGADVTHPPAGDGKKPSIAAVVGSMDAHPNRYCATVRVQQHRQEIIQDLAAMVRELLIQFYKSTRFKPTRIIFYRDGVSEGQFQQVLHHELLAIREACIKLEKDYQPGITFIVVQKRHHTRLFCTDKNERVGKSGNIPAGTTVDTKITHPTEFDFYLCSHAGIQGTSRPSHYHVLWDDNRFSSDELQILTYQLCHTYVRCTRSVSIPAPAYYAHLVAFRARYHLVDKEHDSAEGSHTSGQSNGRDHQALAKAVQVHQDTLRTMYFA
HA-Ago2(1–580): residues 1-580 of Q9UKV8
HA-Ago2(1–445): residues 1-445 of Q9UKV8
HA-Ago2(1–226): residues 1-226 of Q9UKV8
HA-Ago2(1–200): residues 1-200 of Q9UKV8
HA-Ago2(1–175): residues 1-175 of Q9UKV8
HA-Ago2(73–859): residues 73-859 of Q9UKV8
HA-Ago2(175–859): residues 175-859 of Q9UKV8
eGFP-Ago2(175–226)-His: residues 175-226 of Q9UKV8
HA-Ago2(226–859): residues 226-859 of Q9UKV8
175–226-deleted HA-Ago2(∆175–226), in HEK293 (Q9UKV8, form named): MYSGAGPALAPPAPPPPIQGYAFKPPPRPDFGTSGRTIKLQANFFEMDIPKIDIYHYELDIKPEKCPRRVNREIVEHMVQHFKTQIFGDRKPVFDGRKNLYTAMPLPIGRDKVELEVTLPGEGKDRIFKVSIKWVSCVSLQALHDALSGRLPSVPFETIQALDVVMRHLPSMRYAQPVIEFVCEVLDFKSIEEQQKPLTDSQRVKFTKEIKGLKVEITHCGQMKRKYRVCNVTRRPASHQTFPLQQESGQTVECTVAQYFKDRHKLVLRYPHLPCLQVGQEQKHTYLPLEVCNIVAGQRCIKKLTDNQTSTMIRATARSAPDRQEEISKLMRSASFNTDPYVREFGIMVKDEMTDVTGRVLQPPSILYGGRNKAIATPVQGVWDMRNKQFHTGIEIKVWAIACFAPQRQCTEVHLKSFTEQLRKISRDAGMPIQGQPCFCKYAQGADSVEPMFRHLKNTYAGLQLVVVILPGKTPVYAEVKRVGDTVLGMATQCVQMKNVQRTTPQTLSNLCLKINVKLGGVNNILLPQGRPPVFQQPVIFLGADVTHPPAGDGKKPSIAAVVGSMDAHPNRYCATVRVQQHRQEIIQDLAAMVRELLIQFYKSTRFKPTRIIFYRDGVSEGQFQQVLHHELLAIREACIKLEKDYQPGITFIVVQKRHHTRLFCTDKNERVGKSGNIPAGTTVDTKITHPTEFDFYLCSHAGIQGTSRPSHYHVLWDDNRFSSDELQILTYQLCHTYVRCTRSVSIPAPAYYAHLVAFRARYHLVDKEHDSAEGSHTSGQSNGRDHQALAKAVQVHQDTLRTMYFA
CBM-mutated HA-Ago2 (WF199/200/202/211A) (Q9UKV8, form named): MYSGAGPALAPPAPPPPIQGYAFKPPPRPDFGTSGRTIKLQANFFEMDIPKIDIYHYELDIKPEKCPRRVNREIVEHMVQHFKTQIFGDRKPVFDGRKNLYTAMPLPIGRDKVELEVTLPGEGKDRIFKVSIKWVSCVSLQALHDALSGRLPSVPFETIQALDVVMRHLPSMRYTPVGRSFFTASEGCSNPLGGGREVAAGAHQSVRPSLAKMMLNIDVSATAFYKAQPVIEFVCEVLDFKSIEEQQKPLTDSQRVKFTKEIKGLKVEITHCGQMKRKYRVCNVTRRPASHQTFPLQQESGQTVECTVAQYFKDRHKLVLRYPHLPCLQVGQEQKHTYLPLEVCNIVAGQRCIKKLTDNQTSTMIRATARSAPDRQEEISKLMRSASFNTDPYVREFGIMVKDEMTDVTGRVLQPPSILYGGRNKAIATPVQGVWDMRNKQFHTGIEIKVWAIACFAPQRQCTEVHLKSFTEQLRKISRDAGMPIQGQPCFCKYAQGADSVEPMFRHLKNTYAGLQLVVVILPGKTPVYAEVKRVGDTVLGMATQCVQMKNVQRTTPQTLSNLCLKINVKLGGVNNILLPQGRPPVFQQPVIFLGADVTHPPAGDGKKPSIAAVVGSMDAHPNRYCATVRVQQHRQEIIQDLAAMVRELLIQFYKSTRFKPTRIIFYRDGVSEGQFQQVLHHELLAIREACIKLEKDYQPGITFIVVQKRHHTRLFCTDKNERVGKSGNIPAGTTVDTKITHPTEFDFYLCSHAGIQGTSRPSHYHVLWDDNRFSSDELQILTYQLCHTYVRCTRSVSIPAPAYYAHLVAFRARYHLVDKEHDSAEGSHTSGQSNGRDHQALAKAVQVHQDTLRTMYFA
HA-Ago2 (WF199/200AA) (Q9UKV8, form named): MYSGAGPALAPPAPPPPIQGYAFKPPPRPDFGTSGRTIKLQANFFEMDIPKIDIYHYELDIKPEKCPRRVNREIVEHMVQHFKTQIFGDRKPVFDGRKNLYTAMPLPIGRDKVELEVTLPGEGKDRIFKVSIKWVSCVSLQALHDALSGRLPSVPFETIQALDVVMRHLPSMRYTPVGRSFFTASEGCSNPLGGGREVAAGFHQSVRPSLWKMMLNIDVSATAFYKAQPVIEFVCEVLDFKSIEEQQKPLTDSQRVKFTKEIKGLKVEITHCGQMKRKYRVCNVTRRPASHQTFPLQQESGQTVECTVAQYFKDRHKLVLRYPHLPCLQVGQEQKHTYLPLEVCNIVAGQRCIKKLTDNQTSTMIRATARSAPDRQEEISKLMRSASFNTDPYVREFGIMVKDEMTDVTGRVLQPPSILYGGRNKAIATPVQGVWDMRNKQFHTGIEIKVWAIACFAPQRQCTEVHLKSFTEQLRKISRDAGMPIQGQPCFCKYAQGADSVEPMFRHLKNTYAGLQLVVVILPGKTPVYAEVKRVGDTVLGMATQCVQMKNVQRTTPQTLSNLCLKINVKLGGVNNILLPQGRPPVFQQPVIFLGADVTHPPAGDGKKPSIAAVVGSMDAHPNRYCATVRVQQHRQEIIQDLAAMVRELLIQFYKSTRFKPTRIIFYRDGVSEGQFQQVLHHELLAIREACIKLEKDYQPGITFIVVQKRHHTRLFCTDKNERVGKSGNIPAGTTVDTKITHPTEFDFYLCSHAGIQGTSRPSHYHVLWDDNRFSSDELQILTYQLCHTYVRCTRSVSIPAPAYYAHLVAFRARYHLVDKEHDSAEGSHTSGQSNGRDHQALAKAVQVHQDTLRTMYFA
UniProt Q03135: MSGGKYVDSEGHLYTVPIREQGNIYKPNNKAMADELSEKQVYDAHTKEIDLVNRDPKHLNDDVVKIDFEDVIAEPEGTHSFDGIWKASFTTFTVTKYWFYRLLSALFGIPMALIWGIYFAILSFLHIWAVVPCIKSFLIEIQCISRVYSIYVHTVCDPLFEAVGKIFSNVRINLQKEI
CAV1-Flag(∆84–102) (Q03135, form named): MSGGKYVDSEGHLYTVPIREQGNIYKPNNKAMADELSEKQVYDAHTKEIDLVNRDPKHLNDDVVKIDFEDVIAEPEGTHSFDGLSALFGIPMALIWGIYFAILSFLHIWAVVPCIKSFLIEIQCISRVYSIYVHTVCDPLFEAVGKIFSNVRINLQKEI
CAV1-Flag(∆61–84) (Q03135, form named): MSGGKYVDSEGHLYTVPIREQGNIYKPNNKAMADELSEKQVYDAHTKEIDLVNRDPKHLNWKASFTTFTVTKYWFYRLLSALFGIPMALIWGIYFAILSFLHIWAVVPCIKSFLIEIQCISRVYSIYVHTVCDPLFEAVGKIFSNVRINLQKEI

Results on 8 substances are retold here after PMC11094075.

No constants are given. Whether binding was seen depends on the method and setting. Binding seen in cells or lysates may run through a third protein. Some entries that bind do so weakly or less than the wild type.

Turning to “CAV1-Flag(∆84–102) (from UniProt Q03135 1-178)”, the binding entry in experiment [1] is reported as “no binding”.
With “CAV1-Flag(61–178) (from UniProt Q03135 61-178) (domain or fragment)”, in [1], the binding entry is recorded as “binds”.
For the substance “Caveolin-1 (CAV1), endogenous (from UniProt Q03135 1-178)”, the binding result in experiment [2] is recorded as “binds”; in experiment [3], “binds”; in experiment [4], “no binding”; in [5], “binds”; in experiment [6] it was “no binding”; in [7] it was “binds”. In experiment [8], the binding entry was “binds”.
Regarding “CAV1-Flag(∆61–84) (from UniProt Q03135 1-178)”, in [1], the binding entry is given as “binds”.
For the substance “Flag-labeled human CAV1 (CAV1-Flag), full length, wild type (from UniProt Q03135 1-178)”, the binding entry with HA-Ago2(1–580) (human) is “binds”; in experiment [9], “binds”; in experiment [10], “no binding”; with HA-Ago2(E197F) (human), “binds”; with HA-Ago2(73–859) (human), “binds”; in the experiment with HA-Ago2 (W211A) (human) it was “binds”. In addition, the binding result in [11] is “no binding”; in the experiment with HA-Ago2(1–175) (human), “no binding”; in experiment [12], “binds”; with HA-Ago2(226–859) (human), “no binding”; with HA-Ago2 (S387E) (human), “binds”; in the experiment with HA-Ago2(1–200) (human), “binds”. Further, the binding entry (in the experiment with HA-Ago2 (S387A) (human); in [1]; with HA-Ago2(175–859) (human); with HA-Ago2(D218F) (human); in the experiment with HA-Ago2(1–445) (human); in the experiment with HA-Ago2(1–226) (human)) was “binds” throughout. The binding entry (in [13]; with HA-Ago2 (F202A) (human); with HA-Ago2(E186F) (human)) was “binds” each time.
With “CAV1-Flag(102–178) (from UniProt Q03135 102-178) (domain or fragment)”, the binding entry in [1] is on record as “no binding”.
For “CSD-mutated CAV1-Flag (F92A/V94A) (from UniProt Q03135 1-178)”, the binding result in experiment [1] is recorded as “no binding”.
“His-CAV1(82–101) mRuby (from UniProt Q03135 82-101) (domain or fragment)”: in experiment [1], the binding entry is “binds”.
